Assay results taken from PubChem BioAssay AID1794842 (National Center for Advancing Translational Sciences (NCATS), 2023).
Screen size: about 2,800 compounds; fewer than 10 were called active. Calls follow the shape of the dose curve; as a rule, active = well fitted curve in the direction sought with a large enough effect; inconclusive = small, poorly fitted or top-dose-only effect, or another doubt; inactive = no such curve, though single readings can be large or run the other way. This is one part of the list.

biological target: Metallo-beta-lactamase type 2 (Klebsiella pneumoniae) (UniProt C7C422); experiment: qHTS to identify inhibitors of the New Delhi Metallo-beta-lactamase (NDM): Meropenem screen against the machine-based learning selections.; also: % of control where 0% means no effect; details: Purified NDM-1, meropenem hydrolysis, absorbance 300 nm; at 38.4 µM (top of the series) unless noted
Description: Assay Submitter (PI): James Inglese Ph.D., Patricia Dranchak Ph.D., Mahesh Aitha Ph.D. Assay Development and Screening Technology Laboratory (ADST) National Center for Advancing Translational Sciences (NCATS), Rockville, MD National Institute of Health (NIH), Bethesda, Maryland The metallo-beta-lactamases (MBL) are a main antibiotic resistance mechanism evolved by bacteria. There is an urgent clinical need for MBL inhibitors to mitigate this growing threat. To support a machine-based learning study, qHTS has been used to experimentally test inhibitors identified by prediction tools.
PROTOCOL TABLE (as described by Inglese et al., 2007) SEQUENCE No. (e.g., 1, 2, 3, etc.); […] (e.g., enzyme, Incubation, Reagent, etc.); VALUE; DESCRIPTION Primary Screen 1; NDM-1; 4 uL of 3 nM enzyme [2 nM final] in 50 mM HEPES (pH 7.0), 1 uM […], 0.01% Tween20; Use BioRaptr to dispense into two sets of Aurora black, clear bottom high base 1536-well plates 2; Compounds; 23 nL; Use Pin Tool (Wako) to transfer DMSO control and library compounds in DMSO 3; Incubate; >30 min 4a; Reagent; 2 uL of 50 uM nitrocefin [16.7 uM final] to one set of assay plates 4b; Reagent; 2 uL of 150 uM meropenem [50 uM final] to second set of assay plates 5a; Incubate; 15 min 5b; Incubate; 30 min 6a; Detector; Absorbance at 485 nm (bandwidth = 5 nm, 25 flashes/well) on Tecan Infinity 6b; Detector; Absorbance at 300 nm (bandwidth = 5 nm, 25 flashes/well) on Tecan Infinity NOTES (numbers refer to sequence above) 1; Column 1 of each plate received assay buffer without enzyme and columns 2-48 received enzyme for a final assay concentration of 2 nM. 2; Control plate contained DMSO in columns 1, 2, 3, and 4. 3; Compound interaction with enzyme. 4; Nitrocefin and meropenem substrates were prepared in the same assay buffer as step 1 for a final assay concentration of 16.7 uM and 50 uM, respectively, and added to all wells across respective sets of assay plates. 5; Default reader settings were applied for absorbance read at 485 nm (nitrocefin) or 300 nm (meropenem), bandwidth = 5 nm, 25 flashes/well. References: Inglese J, Shamu CE, Guy RK. 2007. Reporting data from high-throughput screening of small-molecule libraries. Nat Chem Biol. doi:10.1038/nchembio0807-438 Yasgar A, Shinn P, Jadhav A, Auld D, Michael S, Zheng W, Austin CP, Inglese J, Simeonov A. 2008. Compound Management for Quantitative High-Throughput Screening. J Lab Autom 13:79 - 89. doi:10.1016/j.jala.2007.12.004

Sequence of UniProt C7C422 (C7C422 whole entry, looked up): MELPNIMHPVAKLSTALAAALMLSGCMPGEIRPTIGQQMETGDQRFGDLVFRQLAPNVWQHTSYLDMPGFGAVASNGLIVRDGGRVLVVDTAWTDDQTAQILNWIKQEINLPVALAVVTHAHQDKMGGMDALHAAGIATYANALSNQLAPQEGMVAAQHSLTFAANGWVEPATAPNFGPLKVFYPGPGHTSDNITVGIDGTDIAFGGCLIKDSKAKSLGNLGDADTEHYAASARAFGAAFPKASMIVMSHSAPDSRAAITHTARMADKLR

| Compound | activity change, negative = inhibition |
| --- | --- |
| CN1C(=O)C(c2ccccc2)CC12CCN(C(=O)c1cccc(F)c1)CC2 (configuration not stated) | inactive: 0.0609% |
| COC(=O)NCC(=O)N1CC[C@@H]2[C@@H](CCC(=O)N2CCc2ccccc2)C1 | inactive: 3.07% |
| O=C(NCC1(O)CCCCC1)c1ccc2nc(Cc3ccccc3F)oc2c1 | inactive: 3.26% |
| COC[C@@H]1CN(C(=O)Cc2ccc(OC)cc2)C[C@H]1c1nc(C)no1 | inactive: -1.7% |
| O=C(CC[C@@H]1CNC(=O)[C@@H]2C[C@H](NCc3ccc(F)cc3)CN12)NCc1ccccc1 | inactive: 0.0454% [at 57.5 µM] |
| Cc1cnc(C(=O)N2CCC(N3C(=O)C4(CCCC4)C3c3ccccc3)CC2)cn1 (configuration not stated) | inactive: 2.61% |
| CN1[C@@H](CCC(=O)N2CCN(c3ccccc3)CC2)CNC(=O)[C@@H]2[C@H]1CCN2Cc1ccccc1 | inactive: -4.61% |
| Cc1ccsc1-c1[nH]nc2ncc(-c3cn[nH]c3)nc12 | inactive: 3.03% [at 76.7 µM] |
| NC(=O)CN1CCC(C(=O)NCc2cc(-c3ccc(Cl)cc3)on2)CC1 | inactive: 24.4% |
| COc1cc(SC)ccc1C(=O)N[C@H]1CCN2C(=O)[C@@H](CC(C)C)NC(=O)[C@@H]2C1 | inactive: 6.21% [at 57.5 µM] |
| O=C(c1ccccc1-n1cncn1)N1CCC(N2CCCC2=O)CC1 | inactive: -1.22% |
| Cn1cccc1C(=O)NC[C@H]1O[C@@H](CO)[C@@H](O)C1N1CCN(c2ccccc2)CC1 (some centres not stated) | inactive: 41.9% |
| O=C(O)c1ccc(CN2CCC[C@H]2c2nc(-c3ccc(F)cn3)no2)cc1 | inactive: 23.6% [at 57.5 µM] |
| COCCCNC(=O)N1CCc2nn(CC3CC3)c(=O)n2CC1 | inactive: -0.768% |
| Cc1nc2ccc(CNC(=O)c3cccc(CCC(C)(C)O)c3)cc2[nH]1 | inactive: -0.105% |
| CCS(=O)(=O)NCc1nc(-c2ccc(C)cc2)c(-c2ccccn2)[nH]1 | inactive: 34.9% |
| O=C(N[C@@H](CO)c1ccccc1)c1cc(COc2cccc(F)c2)[nH]n1 | inactive: 0.514% |
| COc1cccc(-c2cc(C(=O)O)cc(S(=O)(=O)NC(C)C)c2)c1 | inactive: 7.08% |
| Cc1ccsc1-c1[nH]nc2ncc(-c3ccccc3O)nc12 | inactive: 1.84% [at 57.5 µM] |
| O=C(NCc1ccc(C(F)(F)F)cc1)[C@@H]1Cc2nc[nH]c2CN1Cc1ccccn1 | inactive: 51.4% [at 57.5 µM] |
| CCn1cc(C(=O)N2CCCC(CCc3cccc(F)c3)C2)cn1 (configuration not stated) | inactive: -0.315% |
| Cc1ccc(N2CCN(C(=O)C3CCCN(c4cnn(Cc5ccccc5)c(=O)c4)C3)CC2)cc1 (configuration not stated) | inactive: -0.731% |
